# Reference: PubChem BioAssay AID686979 (National Center for Advancing Translational Sciences (NCATS), 2013)
# The campaign covered roughly 420,000 compounds. About 50,000 (12%) were called active. This list was built around the results that the source calls inconclusive (neither active nor inactive); the mix of calls is not that of the screen. Calls follow the shape of the dose curve; as a rule, active = well fitted inhibition curve with a large enough effect; inconclusive = small, poorly fitted or top-dose-only effect; inactive = flat fitted curve, though single readings scatter. Potencies of inconclusive entries are left out as doubtful fits.
# Assay: qHTS for Inhibitors of human tyrosyl-DNA phosphodiesterase 1 (TDP1): qHTS in cells in presence of CPT; also: nearly all actives have a fitted effect of over 55% in size
# Conditions: chicken DT40 Tdp1-/-;hTDP1 cells + 20 nM CPT, ATP luminescence, 48 h; series mostly up to 46.2 µM
# How it was run: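 Cell growth measured by CellTiter-Glo luminescence after a minimum 48 h, 37 C compound exposure with 20 nM CPT in Tdp1-knockout DT40 cells stably expressing hTDP1, seeded 400/well; qHTS titration format.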
# Potency is read from the fitted curve at half-maximal effect; tags tell the direction and shape of the fitted curve.
row,SMILES,Potency
1,CN1CCN(S(=O)(=O)c2ccc(N3CCN(c4ccccc4O)CC3)c([N+](=O)[O-])c2)CC1,active: 23.1 µM
2,COc1ccc(CNC(=O)CN2C(=O)COc3ccc(S(=O)(=O)N4CCOCC4)cc32)cc1,inactive
3,CCn1c(=O)cc(SCC(=O)N2CCCCC2)c2ccccc21,inactive
4,CC(C)OC(=O)N(C)C[C@H]1OCc2cnnn2CCCC(=O)N([C@H](C)CO)C[C@@H]1C,inactive
5,COc1cccc(CNC(=O)CCCSc2ccccc2)c1,inactive
6,Cc1ccc(NC(=O)Cc2nc(-c3c[nH]c(C(=O)N4CCCC4)c3)cs2)c(C)c1,"inconclusive [inhibitor, single point]"
7,Cc1cccc(N2CCN(CC(=O)N(C)Cc3ccccc3)CC2C)c1 (stereo not given),"inconclusive [inhibitor, single point]"
8,COc1ccc(N2CCN(c3ccnc4cc(Cl)ccc34)CC2)cc1,"inconclusive [inhibitor, single point]"
9,Cc1ccc(C(=O)NNC(=O)COc2ccc(Cl)cc2C)o1,"inconclusive [inhibitor, single point]"
10,CCOC(=O)c1oc2c(c1C)/C(=N/O)CCC2,inactive
11,CN(C)c1cc[n+](Cc2ccccc2)cc1,active: 0.58 µM
12,COc1ccc(-c2cn3nc(N4CCC(C(=O)Nc5ccc(C)cc5)CC4)sc3n2)cc1,"inconclusive [inhibitor, partial curve]"
13,COc1ccccc1N1CCN(S(=O)(=O)CCNC(=O)C23CC4CC(CC(C4)C2)C3)CC1,"inconclusive [inhibitor, single point]"
14,COc1ccccc1CNC(=O)Cn1c(=O)ccc2cc(S(=O)(=O)N3CCCC3)ccc21,inactive
15,CN(C)/C=C(\C#N)C(=O)Nc1ccc(F)c(Cl)c1,"inconclusive [inhibitor, single point]"
16,CCOc1ccc(N(C)S(=O)(=O)c2cc(-c3cc(C)no3)ccc2C)cc1,"inconclusive [inhibitor, single point]"
17,CNCC(O)CN(c1ccccc1)c1ccccc1 (stereo not given),"inconclusive [inhibitor, partial curve]"
18,Cc1ccc(C)c(-c2nc3ccc(N)cc3[nH]2)c1,active: 23.1 µM
19,CCn1nc(C(=O)OCC(=O)N2c3ccccc3CC2C)c2ccccc2c1=O (stereo not given),"inconclusive [inhibitor, partial curve, poor fit]"
20,O=C(Nc1ccc(C(=O)N2CCN(c3ccc(Cl)cc3)CC2)cc1)c1nsc2ccccc12,"inconclusive [inhibitor, single point]"
21,Cn1nnnc1SCC(=O)NC1CCCCC1,inactive
22,CCN(CC)c1ccc(NC(=O)C2CCCC2)cc1,"inconclusive [inhibitor, partial curve]"
23,CCCc1cc(=O)oc2cc(C)c(CN3CCCC3)c(O)c12,"inconclusive [inhibitor, partial curve]"
24,COC(=O)CCC(C)C1CCC2C3CCC4CC(O)CCC4(C)C3CC(O)C12C (stereo not given),active: 13 µM

row,SMILES,Potency
1,CC1(O)C(c2ccccc2)=Nc2ccccc21 (stereo not given),"inconclusive [inhibitor, single point]"
2,COc1ccc(N2C3=C(CC4=C2CCCC4=O)C(=O)CCC3)cc1,"inconclusive [inhibitor, single point]"
3,COc1cc(N/N=C/c2ccc(N(C)C)cc2)ncn1,inactive
4,Cc1ccc(C(=O)CC(=O)c2cccc(F)c2)c(O)c1,active: 7.31 µM
5,O=C(CCCN1C(=O)/C(=C\c2cccs2)SC1=S)Nc1ccccn1,"inconclusive [inhibitor, single point]"
6,Cc1ccc2nc(N3CCN(C)CC3)c(C=O)c(=O)n2c1,inactive
7,CCOC(=O)N1CCN(C(=O)COc2cccc3c2CCN(Cc2ccccc2F)C3=O)CC1,active: 20.6 µM
8,O=C(N/N=C/c1ccco1)c1cccc(S(=O)(=O)Nc2ccccc2Cl)c1,inactive
9,O=C(NC1CCN(Cc2ccccc2)CC1)C1CCN(S(=O)(=O)c2ccc(Cl)cc2)CC1,"inconclusive [inhibitor, single point]"
10,Cc1ccc(-c2nn(-c3ccccc3)cc2C(=O)OCC(=O)Nc2ncc(Cl)cc2Cl)cc1,"inconclusive [inhibitor, single point]"
11,Cc1ccc(Cn2c(C)c(CNC(C)c3ccccc3)c(C(=O)O)c2C)cc1 (stereo not given),"inconclusive [inhibitor, single point]"
12,CC(C)N(CC(N)=O)c1ccc(S(=O)(=O)N2CCCC2)cn1,inactive
13,Cc1ccccc1COc1ccc(-c2nn[nH]n2)cc1,"inconclusive [inhibitor, single point]"
14,CC(C)C1C(=O)N(Cc2cn(CCC3OCCO3)nn2)CCS(=O)(=O)N1Cc1ccc(-c2cccc(CO)c2)cc1 (stereo not given),"inconclusive [inhibitor, single point]"
15,CCC(C)NCCOc1cccc(Br)c1 (stereo not given),"inconclusive [inhibitor, single point]"
16,Cc1cncn1CCc1nc2c3ccccc3nc(SCC(=O)Nc3ccccc3F)n2n1,"inconclusive [inhibitor, single point]"
17,O=C(c1ccc(CS(=O)(=O)c2c(Cl)cccc2Cl)o1)N1CCN(c2ccccc2)CC1,"inconclusive [inhibitor, single point]"
18,CC(O)[C@@H]1NC(=O)[C@H](CCCCN)NC(=O)[C@@H](Cc2c[nH]c3ccccc23)NC(=O)[C@H](Cc2ccccc2)NC(=O)[C@@H](NC(=O)[C@H](N)Cc2ccccc2)CSSC[C@@H](C(=O)N[C@H](CO)[C@@H](C)O)NC1=O (stereo not given in full),inactive
19,Cc1ccc(Nc2nc(N3CCOCC3)c3ccccc3n2)cc1,active: 20.6 µM
20,Cc1cc(Br)ccc1SCC(=O)N1CCN(S(=O)(=O)c2ccccc2)CC1,"inconclusive [inhibitor, single point]"
21,CC(C)(C)c1ccc(-c2noc(CCC(=O)Nc3cccc(Cl)c3)n2)cc1,"inconclusive [inhibitor, partial curve]"
22,CCCc1nnc(NC(=O)CNc2ccc(F)cc2)s1,"inconclusive [inhibitor, single point]"
23,CC(C)OC(=O)CSc1nc2ncc(Cl)cc2[nH]1,inactive
24,CCc1nc2ccc(C(=O)Nc3cccc(OC)c3)cn2c1N(CC)Cc1cccc(Br)c1,active: 18.4 µM

row,SMILES,Potency
1,Cc1ccc(-c2nnc(Nc3cccc(C(F)(F)F)c3)c3ccccc23)cc1S(=O)(=O)N1CCOCC1,active: 9.2 µM
2,Cc1cccc(N(C(=O)C(F)(F)F)C(C(=O)NC2CCCCC2)c2cccs2)c1 (stereo not given),inactive
3,Cc1cc(/C=N/Nc2ccc([N+](=O)[O-])cn2)c(C)n1-c1ccc(C(=O)O)cc1,inactive
4,CN1CCCN(Cc2ccccc2C(F)(F)F)CC1,inactive
5,CCOC(=O)N1CCN(C(=O)CN(c2cc(C)ccc2OC)S(=O)(=O)c2ccc(C)cc2)CC1,"inconclusive [inhibitor, single point]"
6,CCOc1cc(C=NN=C2c3ccccc3-c3ccccc32)ccc1O,"inconclusive [inhibitor, single point]"
7,O=C(CCc1ccc(S(=O)(=O)N2CCOCC2)cc1)Nc1cc(Cl)ccc1N1CCOCC1,"inconclusive [inhibitor, partial curve]"
8,O=C1[C@H]2[C@@H](c3ccccc3)N[C@]3(CCCN(Cc4ccco4)C3=O)[C@H]2C(=O)N1Cc1ccccc1,"inconclusive [inhibitor, single point]"
9,O=C(c1cc(-n2cnnc2)ccc1Cl)N1CCN(c2nc(-c3ccccc3)cs2)CC1,active: 16.4 µM
10,Cc1cccc(NC(=O)c2ccc3c(=O)n4c(nc3c2)CCCCC4)n1,"inconclusive [inhibitor, single point]"
11,Cc1ccc(S(=O)(=O)Cn2nnnc2CN2CCCC3(CCCCC3)C2)cc1,"inconclusive [inhibitor, single point]"
12,CCOc1ccccc1CNC(=O)C1CCCN(S(=O)(=O)c2ccc3c(ccn3C)c2)C1 (stereo not given),active: 14.6 µM
13,C[C@H](CO)N1C[C@H](C)[C@@H](CN(C)C(=O)CCCN(C)C)OCc2cn(nn2)CCCC1=O,inactive
14,O=[N+]([O-])c1ccc(/C=[N+](\[O-])[C@@H]2CCCC[C@@H]2/[N+]([O-])=C/c2ccc([N+](=O)[O-])o2)o1,active: 7.31 µM
15,CCc1ccc(-n2nc(C)c3c(C(=O)Nc4cc(C)ccc4C)cc(C)nc32)cc1,"inconclusive [inhibitor, partial curve]"
16,Cc1ccn2cc(C(=O)Nc3cccc(C(=O)NC4CC4)c3)nc2c1,"inconclusive [inhibitor, single point]"
17,Cc1ccc(Nc2nc(N)nc(-c3oc4ccccc4c3C)n2)cc1,active: 0.206 µM
18,CC1(C)CC[C@]2(C(=O)O)CC[C@]3(C)C(=CC[C@@H]4[C@@]5(C)CC[C@H](O)C(C)(C)[C@@H]5CC[C@]43C)[C@@H]2C1,"inconclusive [inhibitor, single point]"
19,NC(=O)c1ccc(NC(=O)COC(=O)CCC2CCCCC2)cc1,inactive
20,COc1ccc(OCc2cc(C(=O)N3C[C@H]4CC[C@H]3C4)no2)c(Cl)c1,inactive
21,Cc1cccc(N2CCN(C(=O)c3ccc4c(c3)c(C)c(C)n4C)CC2C)c1 (stereo not given),active: 16.4 µM
22,O=C(NC(NCc1cccnc1)C(Cl)(Cl)Cl)c1cccc2ccccc12 (stereo not given),"inconclusive [inhibitor, single point]"
